Reference: PubChem BioAssay AID686979 (National Center for Advancing Translational Sciences (NCATS), 2013)
In all, about 420,000 compounds went through this assay and about 50,000 (12%) were called active. Inconclusive means that the source gave no clear call. Such entries were picked first, then a sample of the others. Calls come from the whole dose curve; as a rule, active = well fitted inhibition curve with a large enough effect; inconclusive = small, poorly fitted or top-dose-only effect; inactive = flat fitted curve, though single readings scatter. No potency is given beside an inconclusive call; the fits are too rough.

Assay: qHTS for Inhibitors of human tyrosyl-DNA phosphodiesterase 1 (TDP1): qHTS in cells in presence of CPT; note: nearly all actives have a fitted effect of over 55% in size
Conditions: chicken DT40 Tdp1-/-;hTDP1 cells + 20 nM CPT, ATP luminescence, 48 h; activity change, negative = growth inhibition: at 46.2 µM (top of the series) unless noted
Procedure, shortened: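 Chicken DT40 Tdp1-/- cells complemented with human TDP1, 400 cells/well, exposed to compounds plus 20 nM camptothecin for at least 48 h at 37 C; viability read as ATP content by CellTiter-Glo luminescence.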
% is set by controls: 0 for no effect and ±100 for the full control effect; potency is the fitted concentration of half-maximal effect; tags give direction and shape of the fitted curve.

Row | SMILES | Potency | activity change, negative = growth inhibition
1 | Cc1ccccc1CS(=O)(=O)c1ncc(Cl)c(C(=O)Nc2nnc(C(C)C)s2)n1 | active: 8.2 µM | –
2 | Fc1cccc(Cc2c(-c3ccco3)nc3ccc(Br)cn23)c1 | active: 16.4 µM | –
3 | O=C(CCCN1C(=O)NC2(CCCC2)C1=O)Nc1cccc(S(=O)(=O)N2CCOCC2)c1 | – | inactive: 2.81%
4 | COc1ccc(NS(=O)(=O)c2ccc(C)c(C(=O)N3CC(C)OC(C)C3)c2)cc1 (stereo not given) | inconclusive [inhibitor, single point] | –
5 | O=S(=O)(NC1CCCCC1)c1ccc(Cl)s1 | inconclusive [inhibitor, full curve] | –
6 | CC(=O)N1CCN(c2ccc(NC(=O)c3cccc(OCc4ccccc4)c3)cc2)CC1 | inconclusive [inhibitor, single point] | –
7 | Nc1[nH]c(C(=O)c2ccccc2)c(-c2ccncc2)c1C(=O)NCc1cccc2ccccc12 | inconclusive [inhibitor, single point] | –
8 | Cc1cc(C)c2c(n1)nn1c(-n3ccnc3)cc(C)nc21 | inconclusive [inhibitor, partial curve] | –
9 | CC12CCC(=O)N1C(C(=O)NNC(=O)c1ccc(F)cc1)CS2 (stereo not given) | – | inactive: 2.51%
10 | COc1ccc(N2CCN(C(=O)c3cn(C)c4ccc(S(=O)(=O)N(C)C5CCCCC5)cc4c3=O)CC2)cc1 | – | inactive: -4.77%
11 | COc1ccccc1OCC(=O)Nc1ccc(C(=O)Nc2ccccc2C(=O)O)cc1 | – | inactive: -21.5%
12 | COc1cc2ccccc2cc1C(=O)Nc1cccc(-c2nc3ccccc3o2)c1 | inconclusive [inhibitor, single point] | –
13 | COc1ccc(CNc2cc(-c3ccccc3OC)ncn2)c(OC)c1 | inconclusive [inhibitor, single point] | –
14 | COCCCn1c(=O)c2sccc2n(Cc2ccccc2)c1=O | – | inactive: -19.5%
15 | Cc1ccccc1OCC(=O)Nc1ccc(N2CCN(C(=O)c3ccco3)CC2)cc1 | inconclusive [inhibitor, single point] | –
16 | COc1cc2cc(C(=O)Nc3ccc4c(c3)OCCO4)[nH]c2cc1OC | – | inactive: 18%
17 | CC(=O)c1cccc(CN2CCC(C(=O)Nc3ccc(-c4cccc(C)c4)cc3)CC2)c1 | active: 10.3 µM | –
18 | Cc1cc2oc3ccc(NCCC4CCCN4C)cc3c(=O)c2cc1C (stereo not given) | inconclusive [inhibitor, single point] | –
19 | CC(C(=O)NCc1cccc(Br)c1)n1ncn2cccc2c1=O (stereo not given) | – | inactive: -13%
20 | COc1cccc(C2CC(c3cccc(Br)c3)n3nc(N)nc3N2)c1 (stereo not given) | inconclusive [inhibitor, partial curve] | –
21 | CS/C(=C/[N+](=O)[O-])Nc1cccc2c1C(C)CC2(C)C (stereo not given) | – | inactive: 3.18%
22 | COc1ccc(C(=O)Nc2cc(Cl)cc(Cl)c2)c(OC)n1 | inconclusive [inhibitor, single point] | –
23 | FC(F)Oc1ccc(N=C2SCC3CCCCN23)cc1 (stereo not given) | inconclusive [inhibitor, single point] | –

Row | SMILES | Potency | activity change, negative = growth inhibition
24 | NCCSc1c(-c2ccccc2)[nH]c2ccccc12 | inconclusive [inhibitor, single point] | –
25 | Cc1ccc2nc(SCC(=O)N3c4ccccc4CC3C)c(C)cc2c1 (stereo not given) | active: 23.1 µM | –
26 | Nc1nn(-c2ccccc2)nc1C(=O)OCc1ccccc1Br | inconclusive [inhibitor, partial curve] | –
27 | COc1ccc(OC)c(/C(O)=C/C(=O)C(=O)Nc2cc(C)ccc2OC)c1 | inconclusive [inhibitor, single point] | –
28 | C[C@H](CO)N1C[C@H](C)[C@H](CN(C)S(=O)(=O)c2cccc(F)c2)Oc2ncc(-c3cccc(C(=O)N(C)C)c3)cc2C1=O | – | inactive: 16.7%
29 | Cc1ccccc1S(=O)(=O)Cc1ccc(C(=O)NCc2ccccc2Cl)o1 | inconclusive [inhibitor, single point] | –
30 | COc1cc(-c2nc3ccc(Cl)cn3c2Nc2ccc3c(c2)OCO3)ccc1O | active: 14.6 µM | –
31 | Cc1ccc(C(=O)NC(=S)NNC(=O)c2ccccc2)cc1 | inconclusive [inhibitor, single point] | –
32 | O=C(Cc1c[nH]c2ccccc12)Nc1ccccc1N1CCOCC1 | inconclusive [inhibitor, single point] | –
33 | S=C(Cc1cccnc1)N1CCOCC1 | inconclusive [inhibitor, partial curve, poor fit] | –
34 | COC(=O)[C@@]12C[C@@H](CC(=O)NCC34CC5CC(CC(C5)C3)C4)C(=O)N(Cc3ccc4c(c3)OCO4)C1=CCC(C)(C)C2 | inconclusive [inhibitor, single point] | –
35 | Nc1nc(N)c(-c2cccc(C(F)(F)F)c2)c(Cc2cccc(C(F)(F)F)c2)n1 | active: 2.91 µM | –
36 | CSC1=N/C(=C\c2ccccc2Cl)C(=O)N1N(C)C | – | inactive: -23.9%
37 | Cn1cc(-c2cc3n(n2)CCC(=O)N3CCCC(=O)Nc2ccccc2Cl)c2ccccc21 | active: 18.4 µM | –
38 | CCOc1cccc(C(=O)Nc2ccc(N(CC)CC)cc2)c1 | active: 20.6 µM | –
39 | O=C(C[C@H]1C[C@H](C(=O)N2CCOCC2)[C@@]2(CCC3CCCC3)c3[nH]c4cc(-c5ccco5)ccc4c3CCN2C1=O)NCCc1ccccn1 | inconclusive [inhibitor, single point] | –
40 | Cc1cc(N2CCOCC2)ccc1/C=C1\NC(=O)N(Cc2ccccc2)C1=O | inconclusive [inhibitor, partial curve] | –
41 | COc1cc(-c2c(-c3ccc4c(c3)OCO4)noc2-c2ccsc2)cc(OC)c1OC | inconclusive [inhibitor, single point] | –
42 | Cc1cc(O)c(Sc2ccccc2)c(=O)o1 | – | inactive: 4.82%
43 | COc1ccc(C2c3ccc(O)cc3Oc3ncn4nc(-c5ccccn5)nc4c32)cc1OC (stereo not given) | active: 23.1 µM | –
44 | CC1=C(C(=O)Nc2ccc(C)cc2Cl)C2(CCCCC2)OC1=O | inconclusive [inhibitor, single point] | –
45 | O=C(NCC(c1ccco1)N1CCN(c2ccc(F)cc2)CC1)c1cccs1 (stereo not given) | inconclusive [inhibitor, single point] | –
